The values below come from PubChem BioAssay AID1845201 (Molecular Pharmacology Branch, DTP, NCI, 2023).

Certain results were filed several times, with different values. Only these are listed. The source may hold further records. Values that stand side by side repeat one measurement across runs, samples, wells, individuals or studies. Additions like (4×) count equal records among those shown.

The subject of this experiment is COR L88 complex tumor spheroid viability. Put plainly: Anticancer human tumor COR L88 cell line growth inhibition.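 Also: compound exposure lasted 7 days before viability readout; percent of DMSO vehicle-treated spheroids = 100%.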 Conditions: compound alone 0.003 µM; stronger effect = lower value. An excerpt: Multicellular complex tumor spheroid response to DNA repair inhibitors in combination with DNA-damaging drugs
This study explores the anticancer activities of DNA-damaging drugs and inhibitors of DNA damage repair, both as single agents and in combinations. Complex tumor spheroids comprised of malignant cells, endothelial cells and mesenchymal stem cells served as an in vitro model for human solid tumors. This model system incorporates physiologically relevant features and patient-derived or established malignant cell lines with clinically relevant genetic alterations from many tumor types. Twenty-six patient-derived or established malignant cell lines were evaluated representing sarcoma, melanoma, small cell lung cancer (SCLC), non-small cell lung cancer (NSCLC), as well as bladder, ovarian and pancreatic cancers. The concentration ranges selected for each drug and investigational agent were based upon clinically achievable concentrations if the clinical Cmax of the agent was known.
Compounds. […] If the clinical Cmax for an agent had not been determined, the highest concentration tested was 10 microM. […]

In the case of `CC[C@@]1(O)C(=O)OCc2c1cc1n(c2=O)Cc2cc3c(CN(C)C)c(O)ccc3nc2-1`, the viability, T/C – broadly, the result in the treated group divided by that in the control group, in per cent – was 91.2, 92.7, 99.1, 101 (2×), 84.9, 103 (2×), 113, 96.4%.
